# The antibiotic and cytotoxicity screens of Wong et al. (2023)
# The list shows a part of the results.
# Assays:
# [1] = tested on: HSkMC (human skeletal muscle cells); test: cytotoxicity call (relative viability < 0.9); conditions: 10 µM
# [2] = tested on: HepG2; test: cytotoxicity call (relative viability < 0.9); conditions: 10 µM
# [3] = tested on: S. aureus RN4220; test: growth inhibition call (relative growth <= 0.2); conditions: 50 µM
Structure (SMILES),cytotoxicity call [1],cytotoxicity call [2],growth inhibition call [3]
Cc1noc(C)c1NC(=O)N(C)C[C@H]1Oc2c(NC(=O)Nc3cccc4ccccc34)cccc2C(=O)N([C@H](C)CO)C[C@H]1C,inactive,inactive,inactive
CN(C)CC(=O)N[C@@H]1CC[C@@H](CCn2cc(CN(C)C)nn2)O[C@@H]1CO,inactive,inactive,inactive
C[C@@H]1CN([C@H](C)CO)S(=O)(=O)c2ccc(C#Cc3ccccc3F)cc2O[C@@H]1CN(C)C(=O)c1ccc2c(c1)OCO2,inactive,inactive,inactive
COc1ccc(NC(=O)Nc2ccc3c(c2)C(=O)N([C@@H](C)CO)C[C@@H](C)[C@@H](CN(C)CC2CCCCC2)O3)cc1,inactive,inactive,inactive
C[C@@H]1CN([C@@H](C)CO)C(=O)Cc2cc(NC(=O)Nc3cccc4ccccc34)ccc2O[C@H]1CN(C)CC1CCCCC1,inactive,inactive,inactive
C[C@@H]1CN([C@@H](C)CO)C(=O)c2cc(-c3cccc(C(=O)N(C)C)c3)cnc2O[C@H]1CN(C)S(=O)(=O)c1ccccc1,inactive,inactive,inactive
O=C(N1CCOCC1)[C@]1(CCS(=O)(=O)c2ccccc2)N=C(c2ccc(OCCCO)cc2)O[C@@H]1c1ccccc1,inactive,inactive,inactive
C[C@@H]1CCCCO[C@@H](CN(C)Cc2ccc(Cl)c(Cl)c2)[C@H](C)CN([C@@H](C)CO)C(=O)c2cc(NC(=O)Nc3cccc4ccccc34)ccc2O1,inactive,inactive,inactive
CCC(=O)N1CCN(c2ccc(-n3c(=O)ccc4cnc5ccc(-c6cnc7ccccc7c6)cc5c43)cc2C(F)(F)F)CC1,active,active,inactive
COc1ccc2c3c([nH]c2c1)[C@@H](CO)N(C[C@]13CCN(CC1)C(=O)Nc1cccc(c1)F)C(=O)c1ccccc1,inactive,inactive,inactive
COc1ccc(S(=O)(=O)Nc2ccc3c(c2)CC(=O)N([C@@H](C)CO)C[C@@H](C)[C@@H](CN(C)S(=O)(=O)c2cn(C)cn2)O3)cc1,inactive,inactive,inactive
C[C@H](CO)N1C[C@H](C)[C@H](CN(C)C(=O)C2CCCCC2)Oc2cc(C#CCN(C)C)ccc2S1(=O)=O,inactive,inactive,inactive
COc1ccc(NC(=O)Nc2ccc3c(c2)C(=O)N([C@H](C)CO)C[C@H](C)[C@H](CN(C)C(=O)Nc2ccc(F)cc2)OCCCC[C@@H](C)O3)cc1,inactive,inactive,inactive
C[C@@H]1CCCCO[C@H](CN(C)C(=O)c2ccccc2)[C@@H](C)CN([C@H](C)CO)C(=O)c2cc(NC(=O)Nc3ccc(F)cc3)ccc2O1,inactive,inactive,inactive
C[C@H]1CN([C@@H](C)CO)C(=O)CCCn2nncc2CO[C@H]1CN(C)Cc1ccc2c(c1)OCCN2C,inactive,inactive,inactive
Cc1noc(C)c1S(=O)(=O)Nc1cccc2c1O[C@@H](CN(C)C(=O)NC(C)C)[C@@H](C)CN([C@H](C)CO)C2=O,inactive,inactive,inactive
C[C@@H]1CN([C@@H](C)CO)C(=O)c2cc(C#CCN(C)C)cnc2O[C@H]1CN(C)C(=O)CCN1CCCCC1,inactive,inactive,inactive
C[C@@H]1CCCCO[C@H](CN(C)Cc2ccncc2)[C@@H](C)CN([C@@H](C)CO)C(=O)c2cc(NC(=O)c3ccccc3)ccc2O1,inactive,inactive,inactive
Cc1cc(NN)nc(SCC(=O)NN)n1,inactive,inactive,inactive

Structure (SMILES),cytotoxicity call [1],cytotoxicity call [2],growth inhibition call [3]
CCOCCCNc1nc2c([nH]1)c(=O)n(C)c(=O)n2C,inactive,inactive,inactive
NC(=O)NO,inactive,inactive,inactive
COc1ccc(NC(=O)N(C)C[C@H]2Oc3cc(Br)ccc3S(=O)(=O)N([C@H](C)CO)C[C@@H]2C)cc1,inactive,inactive,inactive
COc1cccc(S(=O)(=O)N(C)C[C@H]2Oc3ncc(C#CCC(C)C)cc3C(=O)N([C@H](C)CO)C[C@H]2C)c1,inactive,inactive,inactive
COc1ccc(CN(C)C[C@H]2OCCCC[C@H](C)Oc3ccc(NC(=O)Nc4ccccc4)cc3C(=O)N([C@H](C)CO)C[C@@H]2C)cc1,inactive,inactive,inactive
C[C@@H]1CN([C@H](C)CO)C(=O)c2cc(NC(=O)Nc3cccc4ccccc34)ccc2O[C@H]1CN(C)Cc1ccccc1,inactive,inactive,inactive
C/C=C1\NC(=O)[C@H]2CSSCC/C=C/[C@H](CC(=O)N[C@H](C(C)C)C(=O)N2)OC(=O)[C@H](C(C)C)NC1=O,active,active,inactive
Cl.O=C1CC2(CCCC2)CC(=O)N1CCCCN1CCN(c2ncccn2)CC1,inactive,active,inactive
COc1ccc(CN(C)C[C@H]2OCCCC[C@H](C)Oc3ccc(NS(=O)(=O)c4cccs4)cc3C(=O)N([C@H](C)CO)C[C@@H]2C)cc1,inactive,inactive,inactive
O=C1CN(S(=O)(=O)Cc2ccccc2)C[C@@H]2[C@@H](c3ccc(C#Cc4ccc(F)cc4)cc3)[C@H](CO)N12,inactive,active,inactive
COc1ccc(NC(=O)N(C)C[C@H]2OCCCC[C@H](C)Oc3ccc(NC(=O)Nc4cccc5ccccc45)cc3C(=O)N([C@@H](C)CO)C[C@H]2C)cc1,inactive,inactive,inactive
CO[C@@]1(CNC(=O)c2ccno2)CCSC1,inactive,inactive,inactive
C[C@H]1CN([C@@H](C)CO)C(=O)c2cc(NS(C)(=O)=O)ccc2O[C@@H]1CN(C)S(=O)(=O)c1ccc(Cl)cc1,inactive,active,inactive
C[C@H]1CN([C@@H](C)CO)C(=O)CCCn2nncc2CO[C@H]1CN(C)S(=O)(=O)c1ccc2c(c1)OCCCO2,inactive,inactive,inactive
O=C1OC2(c3ccccc31)c1cc(I)c(O)c(I)c1Oc1c2cc(I)c(O)c1I,active,active,active
Nc1ncnc2c1ncn2C1OC(COP(=O)(O)OP(=O)([O-])OP(=O)([O-])O)C(O)C1O.[Na+].[Na+] (stereo unspecified),inactive,inactive,inactive
O=C(OCc1ccco1)c1ccc(-c2ccc(Cl)cc2)s1,inactive,inactive,inactive
CO[C@H]1CN(C)C(=O)c2ccc(NC(=O)c3ccc(F)cc3)cc2OC[C@H](C)N(C(=O)CN(C)C)C[C@H]1C,inactive,inactive,inactive
C[C@@H]1CCCCO[C@@H](CN(C)Cc2ccc(C(F)(F)F)cc2)[C@H](C)CN([C@@H](C)CO)C(=O)c2cc(NC(=O)NC3CCCCC3)ccc2O1,inactive,active,inactive

Structure (SMILES),cytotoxicity call [1],cytotoxicity call [2],growth inhibition call [3]
C[C@H](CO)N1C[C@H](C)[C@H](CN(C)Cc2ccc(Oc3ccccc3)cc2)Oc2ccc(NS(=O)(=O)c3ccc(F)cc3)cc2CC1=O,active,active,inactive
C[C@H](CO)N1C[C@H](C)[C@@H](CN(C)Cc2ccc(-c3ccccc3)cc2)Oc2ccc(NC(=O)Cc3ccccc3)cc2CC1=O,inactive,inactive,inactive
C[C@H]1CN([C@@H](C)CO)C(=O)c2cc(NS(=O)(=O)c3cccs3)ccc2O[C@H]1CN(C)Cc1ccc(Cl)c(Cl)c1,inactive,inactive,inactive
C[C@@H]1CN([C@@H](C)CO)C(=O)Cc2cc(NC(=O)CCC(F)(F)F)ccc2O[C@@H]1CN(C)S(=O)(=O)c1cccs1,inactive,inactive,inactive
C[C@@H]1CN([C@@H](C)CO)C(=O)Cc2cc(NS(=O)(=O)c3ccc(F)cc3)ccc2O[C@@H]1CN(C)CC1CC1,inactive,inactive,inactive
C[C@@H](O)C#Cc1ccc2c(c1)O[C@@H](CN(C)C(=O)Nc1ccccc1)[C@@H](C)CN([C@@H](C)CO)S2(=O)=O,inactive,inactive,inactive
C[C@H](CO)N1C[C@H](C)[C@H](CN(C)Cc2ccc(Oc3ccccc3)cc2)Oc2ccc(NC(=O)Nc3ccc(C(F)(F)F)cc3)cc2CC1=O,active,active,inactive
COc1ccc(S(=O)(=O)Nc2ccc3c(c2)C(=O)N([C@H](C)CO)C[C@H](C)[C@H](CN(C)S(C)(=O)=O)OCCCC[C@H](C)O3)cc1,inactive,inactive,inactive
COc1ccc(S(=O)(=O)Nc2ccc3c(c2)C(=O)N([C@H](C)CO)C[C@H](C)[C@@H](CN(C)S(C)(=O)=O)OCCCC[C@H](C)O3)cc1,inactive,inactive,inactive
CNC(=O)[C@H]1C[C@@H]2CCN(C(=O)N(C)C)C[C@H]2O1,inactive,inactive,inactive
CCCCCCCCCCCCCCCC(=O)CCO,inactive,inactive,inactive
O=C(NC[C@H]1CCCO1)c1ccc(/C=N/O)nc1,inactive,inactive,inactive
Cn1ncc2c(=O)nc[nH]c21,inactive,inactive,inactive
C[C@H]1CCCCO[C@H](CN(C)C(=O)Nc2ccccc2)[C@@H](C)CN([C@@H](C)CO)C(=O)c2cc(NS(=O)(=O)c3cccs3)ccc2O1,inactive,inactive,inactive
Cc1noc(C)c1NC(=O)N(C)C[C@@H]1Oc2ccc(NC(=O)NC(C)C)cc2CC(=O)N([C@H](C)CO)C[C@@H]1C,inactive,inactive,inactive
CCCC(=O)Nc1ccc2c(c1)C(=O)N(C)C[C@@H](OC)[C@H](C)CN(Cc1cc(-c3ccccc3)on1)[C@H](C)CO2,inactive,inactive,inactive
C[C@@H]1CN([C@H](C)CO)C(=O)Cc2cc(NS(=O)(=O)c3ccccc3)ccc2O[C@H]1CN(C)S(=O)(=O)c1ccc(F)cc1,inactive,inactive,inactive
C[C@H](CO)N1C[C@H](C)[C@@H](CN(C)Cc2ccc(-c3ccccc3)cc2)Oc2ccc(NS(=O)(=O)c3ccc(Cl)cc3)cc2CC1=O,inactive,inactive,inactive
NC(=O)NCc1ccccn1,inactive,inactive,inactive
